This note sets out measurements from article PMC4336329 (PLoS ONE, 2015).

In all, about 310,000 compounds went through this assay and about 2,200 (0.71%) showed an effect of 50% or more. Effects have a minus sign here. This is one part of the list.

The target in the assay is human ether-à-go-go-related gene (hERG) potassium channel (human, UniProt Q12809). As to the kind of experiment: primary screen, population patch clamp on CHO cells stably expressing hERG.
human ether-à-go-go-related gene (hERG) potassium channel, sequence (Q12809 whole entry, looked up): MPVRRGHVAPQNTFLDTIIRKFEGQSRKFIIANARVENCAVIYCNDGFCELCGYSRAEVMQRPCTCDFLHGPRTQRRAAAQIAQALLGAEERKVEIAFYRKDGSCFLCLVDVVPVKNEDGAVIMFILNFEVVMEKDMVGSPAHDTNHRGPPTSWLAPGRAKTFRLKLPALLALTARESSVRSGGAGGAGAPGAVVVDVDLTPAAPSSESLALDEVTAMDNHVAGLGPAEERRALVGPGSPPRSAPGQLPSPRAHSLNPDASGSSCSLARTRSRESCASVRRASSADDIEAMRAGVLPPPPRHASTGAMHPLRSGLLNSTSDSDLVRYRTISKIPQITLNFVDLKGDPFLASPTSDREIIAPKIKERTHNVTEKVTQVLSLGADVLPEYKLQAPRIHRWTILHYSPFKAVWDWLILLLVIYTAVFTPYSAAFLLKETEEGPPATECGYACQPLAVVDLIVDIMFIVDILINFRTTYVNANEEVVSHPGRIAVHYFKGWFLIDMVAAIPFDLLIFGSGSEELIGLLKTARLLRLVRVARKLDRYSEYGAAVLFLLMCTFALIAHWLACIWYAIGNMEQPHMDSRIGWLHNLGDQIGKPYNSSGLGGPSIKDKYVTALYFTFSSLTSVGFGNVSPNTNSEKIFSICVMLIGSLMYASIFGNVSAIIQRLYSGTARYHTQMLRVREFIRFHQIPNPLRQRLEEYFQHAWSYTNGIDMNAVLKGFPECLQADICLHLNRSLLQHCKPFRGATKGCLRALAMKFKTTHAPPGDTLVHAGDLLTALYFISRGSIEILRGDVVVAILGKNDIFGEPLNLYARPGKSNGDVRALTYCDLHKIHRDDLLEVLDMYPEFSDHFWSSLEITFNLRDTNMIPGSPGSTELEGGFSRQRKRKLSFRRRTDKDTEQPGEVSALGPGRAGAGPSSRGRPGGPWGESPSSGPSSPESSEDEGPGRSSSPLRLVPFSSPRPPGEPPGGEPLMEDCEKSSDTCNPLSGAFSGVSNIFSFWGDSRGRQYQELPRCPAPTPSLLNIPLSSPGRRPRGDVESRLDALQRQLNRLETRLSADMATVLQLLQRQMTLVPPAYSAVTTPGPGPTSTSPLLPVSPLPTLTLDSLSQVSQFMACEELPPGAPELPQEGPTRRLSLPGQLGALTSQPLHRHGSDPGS
Consider `CCN(C(=O)COc1ccc(F)cc1Br)c1c(N)n(Cc2ccccc2)c(=O)[nH]c1=O`, for which the “hERG current change (%, negative = inhibition) at 1uM” value came out at 9.79%.
In the case of `COc1ccc(-c2cc(C(=O)Nc3ccc(C)c(C)c3)no2)cc1`, the “hERG current change (%, negative = inhibition) at 1uM” value is listed as 20%.
As to `N/C(=N\OC(=O)c1ccc(Br)cc1)c1cccc([N+](=O)[O-])c1`, the “hERG current change (%, negative = inhibition) at 1uM” value stood at 21.9%.
With `COc1cccc(OCCCCSc2ncccn2)c1`, the “hERG current change (%, negative = inhibition) at 1uM” value is recorded as -1.25%.
As for `O=C(CCS(=O)(=O)c1ccc(Cl)cc1)Oc1ccc2c(c1)OCO2`, the figure is 8.56%.
As to `CC(C)(CNS(=O)(=O)c1ccc(F)cc1)CNS(=O)(=O)c1ccc(F)cc1`, the “hERG current change (%, negative = inhibition) at 1uM” value is 11.1%.
With `COc1ccc(Cl)cc1C(=O)NNC(=O)c1cccc([N+](=O)[O-])c1`, the “hERG current change (%, negative = inhibition) at 1uM” value was 6.56%.
As to `NC(=O)C1CCN(CC(=O)Nc2ccccc2Sc2ccc(Cl)cc2)CC1`, the “hERG current change (%, negative = inhibition) at 1uM” value is given as -16.1%.
Take `CCCC(=O)NCc1nc2ccccc2n1C`: the “hERG current change (%, negative = inhibition) at 1uM” value stood at 0.473%.
The same measure for `COc1ccc(/C=N/c2sc3c(c2C#N)CCN(Cc2ccccc2)C3)c(O)c1`: 14.7%.
Take `COc1ccc(OCc2nc(C#N)c(NCCCn3ccnc3)o2)cc1`: the “hERG current change (%, negative = inhibition) at 1uM” value is recorded as -4.24%.
As for `COc1ccc(N(C(=O)CNC(=O)c2ccco2)C(C(=O)NCC2CCCO2)c2ccccc2)cc1` (stereo not drawn), the “hERG current change (%, negative = inhibition) at 1uM” value amounted to 16.3%.
The same measure for `COC(=O)c1oc2c(c1C)C1(CCC2)SCCS1`: -2.61%; for `CCc1ccc2[nH]c(=O)c(CN(Cc3ccccc3OC)C(=O)Nc3ccccc3OC)cc2c1`: 2.84%.
Turning to `COc1ccccc1N(CC(O)Cn1ccnc1C)S(=O)(=O)c1ccccc1` (stereo not drawn), the “hERG current change (%, negative = inhibition) at 1uM” value is 3.01%.
Take `Cc1sc2ncnc(SCC#N)c2c1C`: the “hERG current change (%, negative = inhibition) at 1uM” value worked out at 9.51%.
`N/C(=N\OC(=O)c1cccc(Cl)c1)c1ccncc1`: the “hERG current change (%, negative = inhibition) at 1uM” value came to 1.42%.
Consider `Cc1ccc(-n2nc(C)c3c2OC(N)=C(C#N)C3c2ccc(C)o2)cc1` (stereo not drawn), for which the “hERG current change (%, negative = inhibition) at 1uM” value was 13.7%.
Regarding `CCN(CC)CCCC(C)NC(=O)c1cc(=O)c2ccccc2o1.Cl` (stereo not drawn), the “hERG current change (%, negative = inhibition) at 1uM” value was -0.658%.
As for `O=C(O)CSc1c2c(nc3cc(C(=O)N4CCOCC4)ccc13)CCCC2`, the figure is 6.67%; as for `O=C(Nc1ccc(Cl)cc1)N1CC=CCC1`, 14.6%.
In the case of `O=[N+]([O-])C(/C=C(\Cl)[N+](=O)[O-])=C1N(Cc2ccc(Cl)nc2)CCN1Cc1ccc(Cl)nc1`, the “hERG current change (%, negative = inhibition) at 1uM” value is recorded as -4.06%.
With `CN1CCN(C(=O)COc2ccc(C(C)(C)C)cc2Br)CC1`, the “hERG current change (%, negative = inhibition) at 1uM” value amounted to 3.27%.
As for `COc1cc(/C=C2\C(=N)N3N=CSC3=NC2=O)ccc1OS(=O)(=O)c1ccccc1[N+](=O)[O-]`, the “hERG current change (%, negative = inhibition) at 1uM” value was determined as 11.2%.
Consider `N#Cc1ccc(C(=O)NC2CCCCCCC2)cc1`, for which the “hERG current change (%, negative = inhibition) at 1uM” value turned out to be 1.73%.
As for `Cc1nc2cc(NC(=O)c3cccc(S(C)(=O)=O)c3)ccc2o1`, the “hERG current change (%, negative = inhibition) at 1uM” value worked out at 13.5%.
With `COc1nc(C)cc(C)c1S(=O)(=O)c1ccccc1`, the “hERG current change (%, negative = inhibition) at 1uM” value is given as 18.1%.
As to `C=CC1CN(CC(=O)OC)S(=O)(=O)c2ccccc21` (stereo not drawn), the “hERG current change (%, negative = inhibition) at 1uM” value stood at 5.84%.
Take `CCOc1cc(/C=C2/C(=O)ON=C2C)ccc1O`: the “hERG current change (%, negative = inhibition) at 1uM” value is 20.7%.
For `CC(Sc1nc(N)cc(N)n1)C(=O)Nc1ccc(N2CCOCC2)cc1` (stereo not drawn), the “hERG current change (%, negative = inhibition) at 1uM” value worked out at 14.7%.
With `CCN(CC)c1ccc(N=C2C(=O)Nc3ccccc32)cc1`, the “hERG current change (%, negative = inhibition) at 1uM” value was -3.82%.
As to `Oc1c(Cl)cc(Cl)cc1/C=N/c1ncn[nH]1`, the “hERG current change (%, negative = inhibition) at 1uM” value stood at 10.8%.
`COc1ccc(-c2ccc(SCC(=O)NCc3ccc4c(c3)OCO4)nn2)cc1OC`: the “hERG current change (%, negative = inhibition) at 1uM” value amounted to 7.22%.
The same measure for `C=CCOC(=O)C1=C(C)OC(N)=C(C#N)C1c1ccoc1` (stereo not drawn): 8.84%.
With `Cn1ccnc1SCC(=O)Nc1cccc2ccccc12`, the “hERG current change (%, negative = inhibition) at 1uM” value is on record as 5.1%.
As for `Cc1cccc2cc(CN(Cc3nnnn3Cc3ccco3)C3CCCC3)c3nnnn3c12`, the “hERG current change (%, negative = inhibition) at 1uM” value stood at 13.1%.
For the molecule `CCOc1cc(CNCc2cccs2)cc(Br)c1OCC.Cl`, the “hERG current change (%, negative = inhibition) at 1uM” value was 3.63%.
On to `CCC(C)NC(=O)C1CCN(S(=O)(=O)c2ccc(OC)cc2)CC1` (stereo not drawn), for which the “hERG current change (%, negative = inhibition) at 1uM” value is listed as 13.1%.
In the case of `COc1ccc(Cl)cc1S(=O)(=O)N1CCCC(C(=O)N2CCOCC2)C1` (stereo not drawn), the “hERG current change (%, negative = inhibition) at 1uM” value is recorded as -0.264%.
With `COc1cc(NC(=O)C2CCCO2)c(OC)cc1NC(=O)c1ccccc1` (stereo not drawn), the “hERG current change (%, negative = inhibition) at 1uM” value turned out to be 12.3%.
Turning to `CCOc1cc(C)c(C(C)C)cc1S(=O)(=O)NCc1ccccn1`, the “hERG current change (%, negative = inhibition) at 1uM” value is on record as 6.17%.
Turning to `CC(=O)c1ccc(NC(=O)c2ccc(C)c(Br)c2)cc1`, the “hERG current change (%, negative = inhibition) at 1uM” value is recorded as 4.32%.
For `Cc1c(-c2ccccc2)cnc2c(C)cccc12`, the “hERG current change (%, negative = inhibition) at 1uM” value was 19%.
As for `CCOc1cc(CNCc2ccccn2)ccc1OCC(=O)NC(C)(C)C.Cl`, the “hERG current change (%, negative = inhibition) at 1uM” value amounted to 8.36%.
In the case of `CC(C)(C)c1ccc(NC(=O)COC(=O)c2ccc3ncsc3c2)cc1`, the “hERG current change (%, negative = inhibition) at 1uM” value stood at 6.72%.
In the case of `CC(C)c1c(C(=O)N/N=C/c2ccc(-c3ccccc3)cc2)nnn1-c1nonc1N`, the “hERG current change (%, negative = inhibition) at 1uM” value worked out at 23.7%.
On to `C/C=C/c1ccc(OCCCCOc2ccc(OC)cc2)c(OC)c1`, for which the “hERG current change (%, negative = inhibition) at 1uM” value is 3.2%.
Take `COc1cccc(CNC(=O)c2ccccc2NC(=O)C2=C(C)OCCS2)c1`: the “hERG current change (%, negative = inhibition) at 1uM” value came out at 9.99%.
As for `COc1ccc(C(=O)OCC(=O)NC23CC4CC(CC(C4)C2)C3)c(OC)c1OC`, the “hERG current change (%, negative = inhibition) at 1uM” value is listed as -15.3%.
Consider `CC(=O)c1ccc(N2CCN(C(=S)Nc3ccccc3)CC2)cc1`, for which the “hERG current change (%, negative = inhibition) at 1uM” value is given as 2.46%.
The same measure for `O=C(NC12CC3CC(CC(C3)C1)C2)N1CCN(c2ncccn2)CC1`: 9.02%; for `CCOC(=O)c1[nH]c(C)c(C(=O)N2CCc3ccccc32)c1C`: 6.01%.
As for `COc1ccc(N2Cc3ccc(C(=O)N/N=C\c4ccc(O)cc4O)cc3C2)cc1`, the “hERG current change (%, negative = inhibition) at 1uM” value amounted to 19.1%.
For `CCOC(=O)c1sc(NC(=O)CSc2ncn[nH]2)c(C#N)c1C`, the “hERG current change (%, negative = inhibition) at 1uM” value is listed as -5.79%.
`CCSc1ccccc1C(=O)Nc1nc2ccccc2c(=O)[nH]1`: the “hERG current change (%, negative = inhibition) at 1uM” value is 17.6%.
`N#Cc1ccc(NC(=O)c2cc(-c3cccs3)on2)cc1`: the “hERG current change (%, negative = inhibition) at 1uM” value was 24.2%.
Consider `Cc1oc2ccc(NS(=O)(=O)c3ccc(C(C)(C)C)cc3)cc2c1C(=O)Nc1ccccc1`, for which the “hERG current change (%, negative = inhibition) at 1uM” value is recorded as -1.99%.
